{
  "source": "PubChem BioAssay AID624418",
  "about": "(National Center for Advancing Translational Sciences (NCATS), 2012)",
  "note": "Among all 410,000 compounds or so, about 530 (0.13%) were called active. Inconclusive means that the source gave no clear call. Such entries were picked first, then a sample of the others. The call rests on the fitted dose curve; in most records, active means well fitted inhibition curve with a large enough effect; inconclusive means small, poorly fitted or top-dose-only effect, or another doubt; inactive means no such curve, though single readings can be large or run the other way. Potencies of inconclusive entries are doubtful fits and often do not repeat.",
  "data": [
    {"test": "qHTS of GLP-1 Receptor Inverse Agonists: Cytotox Screen; further: potency means the concentration at half of the fitted maximal effect; on activity change, negative = inhibition: on the % scale 0 is the no-effect control and ±100 the full control effect", "details": "HEK293 cAMP-luciferase reporter cells, luminescence, 24 h; activity change, negative = inhibition: at 38.3 µM (top of the series) unless noted", "outline": "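Luminescence readout: signal drop marks cytotoxicity. Plated cells grew 12 h at 37 °C, 5% CO2, received 23 nL compound for 24 h, then got luciferase reagent, read after 12 min at RT.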", "values": [
      {"compound": "Fc1ccccc1CNCCC(Cc1ccccc1)c1ccc2c(c1)OCO2", "note": "(configuration not stated)", "Potency": "inconclusive: 14.1 µM [inhibitor, single point]"},
      {"compound": "C=CCSc1nccc(-c2nn(-c3ccc(C)cc3)ccc2=O)n1", "Potency": "inconclusive: 2.51 µM [inhibitor, full curve]"},
      {"compound": "CC(=O)c1ccc(S(=O)(=O)N2CCN(C(=O)CSc3ccc(C)c(C)c3)CC2)cc1", "Potency": "inconclusive: 31.6 µM [inhibitor, single point]"},
      {"compound": "Cc1ccc(C)c(N2CCN(C(=O)C(CC(C)C)NS(=O)(=O)c3ccc4nc(C)sc4c3)CC2)c1", "note": "(configuration not stated)", "activity change, negative = inhibition": "inactive: 3.93%"},
      {"compound": "COc1ccc(CN2CCNC(=O)C2CC(=O)NCC2CCOCC2)cc1C", "note": "(configuration not stated)", "Potency": "inconclusive: 10 µM [inhibitor, single point]"},
      {"compound": "COc1cccc(/C=N/Nc2ccc([N+](=O)[O-])cn2)c1O", "Potency": "inconclusive: 0.891 µM [inhibitor, full curve, poor fit]"},
      {"compound": "Cc1cc2cc(CN(CC3CCCO3)C(=S)NCc3ccco3)c(=O)[nH]c2cc1C", "note": "(configuration not stated)", "Potency": "inconclusive: 10 µM [inhibitor, single point]"},
      {"compound": "COc1cc(C(=O)CCN2CCC(c3ccccc3)C2)cc(OC)c1OC", "note": "(configuration not stated)", "Potency": "inconclusive: 12.6 µM [inhibitor, single point]"},
      {"compound": "Cc1cc(-c2ccccc2)nc(N2CCN(c3ccccn3)CC2)n1", "activity change, negative = inhibition": "inactive: 10.6%"},
      {"compound": "Cc1cccc2nc(-c3ccccc3)nc(N[C@@H](CO)c3ccccc3)c12", "Potency": "inconclusive: 28.2 µM [inhibitor, single point]"},
      {"compound": "Cc1cc(C)cc(-n2nnc3ccccc3c2=O)c1", "activity change, negative = inhibition": "inactive: -7.14%"},
      {"compound": "O=C(c1ccoc1)N1CCC2(CC1)Oc1ccc(Cl)cc1C(=O)C21CC(c2cccnc2)=NO1", "note": "(configuration not stated)", "activity change, negative = inhibition": "inactive: -4.89%"},
      {"compound": "c1ccc(CN2CCN(CCOCCOc3cccc4ccccc34)CC2)cc1", "Potency": "inconclusive: 28.2 µM [inhibitor, single point]"},
      {"compound": "Cc1cc(NCc2ccccn2)ccc1Br", "Potency": "inconclusive: 15.8 µM [inhibitor, single point]"},
      {"compound": "CC(C)C[C@H](NC(=O)c1nc[nH]c1C(=O)N1CCN(C(=O)OC(C)(C)C)CC1)C(=O)OCc1ccccc1", "Potency": "inconclusive: 0.794 µM [inhibitor, full curve, poor fit]"},
      {"compound": "Cc1ccc(S/C=C\\C(=O)c2ccccc2)cc1", "Potency": "inconclusive: 10 µM [inhibitor, partial curve, poor fit]"},
      {"compound": "COc1cccc(NC(=O)CSc2c3c(nc4ccccc24)CCCC3)c1", "Potency": "inconclusive: 12.6 µM [inhibitor, single point]"},
      {"compound": "O=C(CN1CCCc2ccccc21)N/N=C/c1ccccc1O", "Potency": "inconclusive: 10 µM [inhibitor, partial curve, poor fit]"},
      {"compound": "Cc1cccc(NC(=S)N2CCN(S(=O)(=O)c3ccc(F)cc3)CC2)c1", "Potency": "inconclusive: 12.6 µM [inhibitor, single point]"},
      {"compound": "CCC1OC2(C)OC(=N)C1(C#N)C(C#N)(C#N)C2c1ccccc1", "note": "(configuration not stated)", "activity change, negative = inhibition": "inactive: 151%"},
      {"compound": "Cc1nc(N2CCN(c3ccccn3)CC2)c2c(C)c(C(=O)Nc3ccc(F)cc3F)sc2n1", "activity change, negative = inhibition": "inactive: -10.9%"},
      {"compound": "CCC1(C)Cc2c(sc3c2c2ncnn2c2nnc(SCC(=O)NCc4ccco4)n32)CO1", "note": "(configuration not stated)", "Potency": "inconclusive: 31.6 µM [inhibitor, single point]"},
      {"compound": "COc1cccc(NC(=S)N(Cc2ccccn2)Cc2ccccc2Cl)c1", "Potency": "inconclusive: 14.1 µM [inhibitor, single point]"},
      {"compound": "CC1CCCc2sc3nc(N4CCN(CCO)CC4)n4ncnc4c3c21", "note": "(configuration not stated)", "Potency": "inconclusive: 28.2 µM [inhibitor, single point]"},
      {"compound": "C=CCc1cccc(Cl)c1OCCCNC1CCCC1", "Potency": "inconclusive: 10 µM [inhibitor, single point]"},
      {"compound": "CCc1ccccc1NC(=O)Cn1nc(N2CCN(c3ccccc3OC)CC2)ccc1=O", "activity change, negative = inhibition": "inactive: -0.849%"},
      {"compound": "CCOC(=O)c1c(CN2CCOCC2)n(-c2ccccc2)c2cc(Br)c(OC)cc12", "Potency": "inconclusive: 3.16 µM [inhibitor, full curve, poor fit]"},
      {"compound": "Cc1cc(C)c(OCCOCCn2c(-c3ccc(Cl)cc3)nc3ccccc3c2=O)c(C)c1", "Potency": "inconclusive: 11.2 µM [inhibitor, single point]"},
      {"compound": "CC(C)CSC1=NSC2=NC(=O)/C(=C\\c3coc4ccccc4c3=O)C(=N)N12", "activity change, negative = inhibition": "inactive: 49.4%"},
      {"compound": "CC(=O)Nc1cccc(NC(=O)CSc2ccc(-c3sc(-c4ccccc4)nc3C)nn2)c1", "activity change, negative = inhibition": "inactive: -22.8%"},
      {"compound": "CC1(C)CC(=O)C2=C(C1)c1c(ccc3ncccc13)NC2c1cccs1", "note": "(configuration not stated)", "Potency": "inconclusive: 7.08 µM [inhibitor, partial curve, poor fit]"},
      {"compound": "COc1ccccc1NC(=O)C1CCCN(c2ncnc3onc(-c4ccc(F)cc4)c23)C1", "note": "(configuration not stated)", "activity change, negative = inhibition": "inactive: -1.04%"},
      {"compound": "NC(=NCCc1ccccc1)NS(=O)(=O)c1ccc2ccccc2c1", "Potency": "inconclusive: 20 µM [inhibitor, single point]"},
      {"compound": "COc1ccc(-c2ccc3c(c2)S(=O)(=O)c2cccc(C(=O)N4CCN(c5ccccn5)CC4)c2C3=O)cc1OC", "activity change, negative = inhibition": "inactive: 4.3%"},
      {"compound": "Cc1ccnc(Nc2nc(-c3ccc(O)c(O)c3)cs2)c1", "Potency": "inconclusive: 20 µM [inhibitor, single point]"},
      {"compound": "O=C1N/C(=C\\c2ccc(O)cc2)C(=O)c2ccccc21", "activity change, negative = inhibition": "inactive: -9.81%"},
      {"compound": "O=C(C1CC1)N1CCc2cc(Br)cc(S(=O)(=O)Nc3ccc(F)c(F)c3)c21", "Potency": "inconclusive: 11.2 µM [inhibitor, single point]"},
      {"compound": "CC(C)CN1CCC(Oc2cccc(C(=O)NCCc3ccccc3)c2)CC1", "Potency": "inconclusive: 28.2 µM [inhibitor, single point]"},
      {"compound": "COCCNCCCCOc1ccccc1-c1ccccc1", "Potency": "inconclusive: 28.2 µM [inhibitor, single point]"},
      {"compound": "CCCCc1nc2ccccc2c(N)c1CCC", "note": "(tested in a mixture with another compound)", "Potency": "inconclusive: 28.2 µM [inhibitor, single point]"},
      {"compound": "CCN(CC)CCn1c(=N)n(CC(=O)c2ccc(Br)s2)c2ccccc21", "Potency": "inconclusive: 28.2 µM [inhibitor, single point]"},
      {"compound": "COc1ccc(CCNC(=O)c2ccc3nc(N4CCCCC4)sc3c2)cc1OC", "Potency": "inconclusive: 31.6 µM [inhibitor, single point]"}
    ]}
  ]
}
